Results reported in the supplement of paper PMC11417369.
The other results are listed elsewhere or left out.

Tested on: PF3D7_0420300 AP2 domain 1 (GST-tagged)
Assay: gcPBM binding intensity (ln(normalized median fluorescence intensity)); higher = stronger DNA binding
Summary of the method: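 GST-fused DNA-binding domains of P. falciparum, expressed in E. coli, were applied at about 25 μg on average for 1 h to an Agilent 4 × 180k array of primer-extended double-stranded 36-bp intergenic genomic probes and negative controls. Binding intensity is the highest Masliner-normalised natural-log median intensity across replicate spots of either probe orientation, measured with Alexa488 anti-GST antibody and a 488 nm scan.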

Sequence	gcPBM binding intensity (ln)
TTTTTTTTTTTAAAAAGTACACAATTAATTAATATA [XGTACX_site8494]	8.75
TATAAACATTATAAATGTACAAATATATATATATAT [XGTACX_site3218]	9.28
TTATTGAAAAAAGAACAAAAAAAAAAAGAAAAATTA [XGTACX_negctrl_site438]	9.09
AAAATAAGAAATAGATGTACTTATAAATAAATACAA [XGTACX_site4441]	9.2
GAAAGAATAAAATTTACACACATATATATATACATA [CACACA_site2250]	9.51
ATATATATATATATATGTACTTATTTGAATACTAAA [XGTACX_site2330]	9.01
TCATTATATCATGGTAGTACTCATTAATAATACGTA [XGTACX_site8701]	9
GTTAATAAAAATATATGTACATAATTATTATGAAAA [XGTACX_site3030]	9.12
AATATTATTTAGGAGCGTACGTTTTATTTACATATT [XGTACX_site5188]	9.4
TATATATTTTTTAAACCACACACAATATAGAGTATA [CACACA_site8106]	9.62
ATATAGGTAAAAAGTATACACACGTTGACACATTCT [CACACA_site1199]	9.59
ATAATATAATTTTGCAGTACCCAAAAAACAAAATAA [XGTACX_site4827]	9.38
AATATGATATATATATGTACATATATATAATATAAT [XGTACX_site3072]	9.28
AAAGTATAATAATACACACACTTTAAAAGTTAAATG [CACACA_site7550]	9.58
AAAAGATGCGCATACACACAGATGAATAACAAAAAA [CACACA_site6865]	9.74
GCACATTTTTTTATCACACATATAATTACAATATAA [CACACA_site5585]	9.51
TTTCGGTTTTTTTTTATTTTTTTTTTTTTATTATTT [CACACA_negctrl_site335]	9.75
TACGTATGCCTGTGATGTACATATATATATACATAC [XGTACX_site4728]	9.36
ATATAAATCAAAAACGCACACATAAATATTTATATA [CACACA_site2442]	9.66
ATAAAAGAATAAATAAAACACATATATATATATATA [XGTACX_negctrl_site31]	9.11
TTTTTTTTTTTTTTGGTGCACATAGAAATTCTAAAA [GTGCAC_site9809]	8.78
AAAAGAAAATAAGAAACACACAAAAATATATAAAAA [CACACA_site3697]	9.74
TTCTTTGCTTTTCAAACACACAAAAGTTATTATATT [CACACA_site521]	9.41

Sequence	gcPBM binding intensity (ln)
TTATAAATGTATTTATGTACATATAAATATATATAA [XGTACX_site2970]	8.94
TTTTAAATATATGTGCTATTATATTAAGAGATGTAA [GTGCAC_negctrl_site560]	9.03
ATCTATAAATTTCCACGTACATATATATATATATAT [XGTACX_site4502]	9.32
CCTCTTTTTATTCTCACACACGTTTATATATAAAGT [CACACA_site4992]	9.57
TTTTTTATTTTTGCGTGTACATAATAATGAATCTTC [XGTACX_site8077]	9.11
GAAATTTCCCATATTACACACATACTATGATATATA [CACACA_site5987]	9.66
CCTATTTATAAATACACACACATATATAAATAAATA [CACACA_site5629]	9.81
AAAAAACTATTATGTGCATGCACAAGTCAGGTAAAT [TGCATGCA_site791]	9.54
AAAAAGAAATCCAATACACACCTTCAAAATGGGTAT [CACACA_site4978]	9.53
TATTTATAGATATATACACACATATTTATATTTATA [CACACA_site6441]	9.39
CATTAAATATATAAATGTACAAATATATTTTTCAAA [XGTACX_site4429]	8.98
TTGTTCATATTTTTTATTGTGTTAATATTTATAAAA [GTGCAC_negctrl_site423]	9.38
TTAATGTAGAGAAAATGTACATTTTATTAAAACAAT [XGTACX_site6376]	9.19
ATATTTTGATAATATTGTACAAAAACATTAAAATGT [XGTACX_site8361]	9.07
AACATTATGTTTATTTGTACATATAAATATATGTAA [XGTACX_site7389]	8.98
TCTTTTATGATATTTACACACAAACGTGAGATAGCT [CACACA_site2312]	9.46
CTCTACGAATTCATAGTGCAAAGAGCTAATTTTTTC [GTGCAC_site9710]	8.94
GATCATTCAGTTTTATCACACACAATCAAACATATA [CACACA_site8882]	9.64
ATGCGTTAATCTATATATATTATGTATAGATTTTCA [CACACA_negctrl_site1650]	9.2
AACATATTTATGATGTGTACCTACATAATAGAATTT [XGTACX_site141]	9.26
TTTTTTAATATATTATTATAAATATTTTTTATGTGT [GTGCAC_negctrl_site712]	9.26
CATAATGTAAATAAGTGTACACATATATAATACATA [XGTACX_site3108]	9.34
ATCGGTAATATTAACACACACATTTATATATATTTA [CACACA_site1084]	9.74

Sequence	gcPBM binding intensity (ln)
TTTTGTAGATATTGAAGTACAAAAAAAATGTAAAAG [XGTACX_site5905]	9.25
TATATATCGCCCTTCACACACACACGGATATAAATA [CACACA_site7221]	10.1
ATAATAAATATATAATGTACATATTATGTTCTTTAT [XGTACX_site8655]	9.15
CGCTCTTATAAATGTTGTACATAAAACTGTTCATTA [XGTACX_site3409]	9.22
ATTTTGATGATGTATGCACACATTGAAAATGAGAAA [CACACA_site2916]	9.03
ACAACATATGTTATCACACACATATAAATATAAATA [CACACA_site7038]	9.54
ATATATATATATATATGTACATATTTGATTTTTCTT [XGTACX_site8171]	8.96
TTTTTTTTTTTTTTTTGTACATATAAAAATACGTAA [XGTACX_site6003]	8.6
CACACGCACAGACACACACACACACGGATATAAATA [CACACA_site6301]	10.2
TCACTACATTTTGGACGTACACAACTTGATATATTG [XGTACX_site4775]	9.38
AAATCTTAACTCTATGCACACATAAAAGTATATAAA [CACACA_site8709]	9.18
ATGATATACTTGAGTGTGCACAAACTATTACTTACA	9.42
GATAATAATAAACAACCACACACAAAAAAACAAAAA [CACACA_site9074]	9.88
TGCTATAATTTATATACACACAAATATATACACATA [CACACA_site9356]	9.45
CAATGTTGTACATACACACACACAAAAAAAAAATAA [CACACA_site2407]	9.98
TTCAAATTTCCACATACACACCTTGTAGATCTATAT [CACACA_site6270]	9.46
ATAAAAAAACACACTCGTACACACATATTTTCTTTC [XGTACX_site6565]	9.84
ATGAATAATTAATGATGTACTTAAAAAAAAAAATAT [XGTACX_site6346]	9.26
AAAAAAAAAAAAAAAAAAAAAAAAAAAAAAACATAT [GTGCAC_negctrl_site580]	9.46
GTTAATATCTTGAACAGTACTCTAAATATCTACATA [XGTACX_site5358]	9.21
ATATATTATATTGAATGTACATATATATATTATATA [XGTACX_site8445]	9.07
TAGCCCATATGGAATACACACTGAAAATAAAAAAAG [CACACA_site5799]	9.41
TTACAATAAATTATAGTGCAATATTTTATTTAATAT	9.01

Sequence	gcPBM binding intensity (ln)
ACTACATAATATTAACGTACATATTATAATACTTGC [XGTACX_site954]	9.33
ATATAACACATTAGTTGTACTATTTTTAATTGGTGA [XGTACX_site961]	9.19
TACATAATAACATGTACACACATTCTTCTATAAATG [CACACA_site4061]	9.42
CATTAAAAAGAAAGTTCACACACATATATATGACGG [CACACA_site8836]	9.74
ACATAATAAAAATGACGTACAATTTTTTTTTTTCAT [XGTACX_site8340]	9.14
TTTATATTATTAGAAACACACATTAGATTAAAATTA [CACACA_site3286]	9.15
TATTTAATTACATGAACACACATTATATATTTTTAA [CACACA_site5615]	9.33
TATATATATATGTGCACACCAATTGTATGTAATATA [CACACA_site3889]	9.47
TATATATATATATATACACACAAAAAAATAAATTCT [CACACA_site98]	9.57
TACTTTTCATCTTCTTAACACACAAAAAAAAAAAAA [CACACA_site9290]	8.97
ATTTATTTTAATAATTGTACATGTTATTTTATATAT [XGTACX_site2667]	9.31
ATCATTTTTAAAGGAACACACAAAAAAAGTTATAAT [CACACA_site6761]	9.52
ATATATTATTATAACTGTACTTTTTTTGTGGTTAAT [XGTACX_site8266]	9.44
TATGCGTATATATAAATACACACCAAATGTTAATAT [CACACA_site1713]	9.35
CCATTTACATTGTGAAGTACTAAAAAAAAATGTAGA [XGTACX_site7882]	9.22
ACAAGGAATATAAAAAGTACATAAAATACATAAAAA [XGTACX_site1217]	9.56
TATGGATGTATTCATACATGCACACGTACATATTTA [TGCATGCA_site991]	9.32
ATAATTTGATGGTTAACACACATATATATTATATAT [CACACA_site2449]	9.49
ATATAAATATAAATATATATGTATAAATATAAATAT [CACACA_negctrl_site247]	9.2
AAAATATATATAAATGCATGCATAATGAAATATATA [TGCATGCA_site39]	9.45
